In ChEMBL document CHEMBL4888484, “Replenishing the malaria drug discovery pipeline: Screening and hit evaluation of the MMV Hit Generation Library 1 (HGL1) against asexual blood stage Plasmodium falciparum ,using a nano luciferase reporter read-out” (2022):
Among all 150,000 compounds or so, about 540 (0.36%) showed an effect of 50% or more. This is one part of the list.

system: Plasmodium falciparum; assay: Primary screen in NF54 nanoGlo assay, in single point, at 2uM, 72h; a lower Z score goes with more inhibition; assay type: functional, Erythrocyte; settings: timepoint 72 hour

Row | SMILES | % Inhibition [%] | Z score
1 | CC(NC(=O)C1CCCN(C(=O)c2cccs2)C1)c1ccncc1 (centres undefined) | -10 | 1.21
2 | Cc1[nH]nc(C(=O)N2CCC(C(C)O)C2)c1C (centres undefined) | -11 | 1.77
3 | C[C@@H]1CC(=O)N[C@H](C(=O)NCC2(C)CCN(C(=O)[C@@H]3C[C@H](C)CC(=O)N3)C2)C1 (some centres undefined) | -22 | 1.85
4 | CN(Cc1cnccn1)C(=O)c1cc(F)c(F)cc1Cl | 3 | -0.56
5 | CN(C)C(=O)N1CCC(CNC(=O)c2ccc(Cl)s2)CC1 | -9 | 1.05
6 | CC(C)n1nccc1C(=O)N1CCN(Cc2nnc[nH]2)CC1 | 0 | -0.02
7 | Cc1cccc(-c2nc3ccc(F)cc3n2C(C)C)c1NC(=O)Cc1ccccc1Cl | 12 | -1.23
8 | O=C(c1ccc(=O)[nH]c1)N1CCC[C@H]1c1nc(-c2ccccc2)no1 | -12 | 1.09
9 | Cc1c(C(=O)N2CCCCC2)sc2ncnc(N(C)CCc3ccccn3)c12 | -12 | 1.31
10 | CCN(CC)S(=O)(=O)c1ccc2c(c1)cc(C(=O)N1CCC(Cc3ccccc3)CC1)n2C | -7 | 1.3
11 | NC(=O)Cn1nc2n(c1=O)CCN(Cc1ccccc1F)C2=O | -17 | 1.94
12 | COc1cc(OC)cc(-c2nn(CN3CCC[C@H](C(=O)Nc4ccccn4)C3)c(=S)o2)c1 | 5 | -0.9
13 | Cc1c(C(=O)N2CCN(c3nc(N)ns3)CC2)nnn1-c1ccc2c(c1)OCCO2 | -10 | 1.23
14 | O=C(COc1ccc(Cl)cc1)n1c2ccccc2c2ccccc21 | 39 | -5.68
15 | CCc1nn(C)cc1NC(=O)[C@H](C)NS(=O)(=O)c1c(C)nn(C)c1C | 7 | -1.38
16 | Cn1nc(C(=O)NC2CCCCCCC2)c2ccccc2c1=O | -6 | 1
17 | CCOc1ccc(S(=O)(=O)Nc2ccccc2CCc2nc3ccccc3[nH]2)cc1 | -10 | 1.19
18 | O=C(Nc1cnn(CC(=O)N2CCCCC2)c1)c1ccccc1 | 5 | -0.66
19 | Cn1nc(CN2CCC(OCc3ccc(Cl)c(Cl)c3)CC2)[nH]c1=O | -4 | 0.55
20 | Cc1cccc(CN2CCN(C(=O)c3cnc(NC(C)C)nc3)[C@@H](C)C2=O)c1 | -7 | 1
21 | O=C(Nc1ccc(-c2ncco2)cc1)C1([C@@H]2CCCCO2)CCC1 | -11 | 1.16

Row | SMILES | % Inhibition [%] | Z score
22 | O=C(N[C@@H](c1ccc(F)cc1)c1ccccc1Cl)C1CCOCC1 | 1 | -0.06
23 | Cc1nn(-c2ccccc2)c2sc(-c3noc(-c4cccs4)n3)cc12 | 8 | -0.97
24 | Cc1c(C(=O)NCc2ccccc2)cc(-c2ccccc2)n1-c1ccc(F)cc1 | 6 | -0.88
25 | Cc1cnc(C)n1C1CCN(S(=O)(=O)c2cccc3nsnc23)CC1 | -9 | 1.24
26 | CC(C)c1ccc(NC(=O)N2CCC3OCCN(C)C3C2)cc1F (centres undefined) | 9 | -1.19
27 | Cc1ccc2c(c1)N(C)C(=O)c1cc(NC(=O)c3cccc(Br)c3)ccc1O2 | 10 | -1.58
28 | O=C(C1CCN(S(=O)(=O)N2CCOCC2)CC1)N1CCCn2nc(-c3ccc(C(F)(F)F)cc3)cc2C1 | -19 | 1.68
29 | O=C(Nc1nc2ccccc2s1)c1ccc(OCc2ccccc2)cc1 | -6 | 0.83
30 | COc1ccc(CCNC(=O)c2c(C)noc2-c2ccncc2)cc1 | -5 | 0.48
31 | Cc1cc(C)n(Cc2nc(CC(=O)Nc3ccccn3)no2)n1 | -6 | 1.1
32 | Cc1ccc(C)c(OCC(=O)Nc2cc(S(=O)(=O)N3CCCC3)ccc2OCC(F)(F)F)c1 | 3 | -0.56
33 | CC1CN(Cc2cnn(Cc3ccccc3)c2)CC2(CCOC2)O1 (centres undefined) | 1 | -0.11
34 | COc1cc(OC)c(OC)cc1CN1CCC[C@H]1c1cc(C(C)C)no1 | -18 | 2.4
35 | CC(C)CNC(=O)CNC(=O)Nc1ccc(Br)cc1 | -9 | 0.79
36 | COCC(=O)NCc1nccc(N2CCCC2)n1 | -11 | 1.71
37 | COc1cc(Oc2ccc(C(C)C)nn2)ccc1CN1CCCC1 | -23 | 2.93
38 | CC1CN(Cc2ccccc2)CC1NC(=O)N(C)CC1CCCOC1 (centres undefined) | -1 | 0.07
39 | COc1cc2c(cc1Cl)CN(Cc1cn(C(C)C)nn1)CC2 | -2 | 0.43
40 | Cn1cncc1CC(=O)Nc1cccc2c1OC(C)(C)CC2 | -5 | 0.66
41 | CCC(=O)N(C1CCOCC1)C1CCN(Cc2cc(F)c(F)c(F)c2)CC1 | 1 | -0.19
42 | O=C(OCc1ccccc1)N1CCN(c2nc3ccccc3c3nnc(C4CC4)n23)CC1 | 1 | -0.18
